# Data from PubChem BioAssay (NCATS).
# Inconclusive means that the source gave no clear call. Such entries were picked first, then a sample of the others. No potency is given beside an inconclusive call; the fits are too rough. Activity calls are given as the source filed them. Calls come from the whole dose curve; as a rule, active = well fitted inhibition curve with a large enough effect; inconclusive = small, poorly fitted or top-dose-only effect, or another doubt; inactive = no such curve, though single readings can be large or run the other way.
# Target: DNA polymerase eta (Homo sapiens) (UniProt Q9Y253)
# Sequence of UniProt Q9Y253 (Q9Y253 whole entry, looked up): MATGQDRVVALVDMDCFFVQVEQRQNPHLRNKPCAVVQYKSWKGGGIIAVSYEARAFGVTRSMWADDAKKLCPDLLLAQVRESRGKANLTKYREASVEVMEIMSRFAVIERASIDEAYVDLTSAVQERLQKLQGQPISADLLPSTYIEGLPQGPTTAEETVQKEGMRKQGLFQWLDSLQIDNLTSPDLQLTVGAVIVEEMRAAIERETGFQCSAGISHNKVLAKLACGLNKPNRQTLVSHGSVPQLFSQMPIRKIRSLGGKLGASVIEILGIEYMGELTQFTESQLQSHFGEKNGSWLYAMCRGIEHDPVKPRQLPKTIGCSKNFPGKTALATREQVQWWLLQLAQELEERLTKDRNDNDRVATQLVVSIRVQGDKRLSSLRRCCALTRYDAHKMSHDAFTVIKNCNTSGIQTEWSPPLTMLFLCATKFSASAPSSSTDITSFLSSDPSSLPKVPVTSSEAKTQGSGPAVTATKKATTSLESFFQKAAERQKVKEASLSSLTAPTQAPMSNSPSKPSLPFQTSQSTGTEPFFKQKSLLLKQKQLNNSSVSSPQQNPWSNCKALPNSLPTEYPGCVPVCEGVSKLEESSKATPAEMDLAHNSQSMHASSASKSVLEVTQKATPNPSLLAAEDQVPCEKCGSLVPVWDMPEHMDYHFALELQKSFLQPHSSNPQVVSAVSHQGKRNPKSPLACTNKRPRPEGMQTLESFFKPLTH
# Assay: qHTS for Inhibitors of Polymerase Eta: Confirmatory Assay for Cherry-picked Compounds (AID 720502)
# Details: Pol eta primer extension, TAMRA/BHQ fluorescence, 10 min
# Method in brief: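 Compounds are preincubated 15 min at room temperature with 10 nM human Pol eta, with buffer-only wells serving as negative control. Adding 50 nM final substrate starts the reaction, and TAMRA fluorescence is read over 10 min.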
# Potency is the fitted concentration of half-maximal effect; tags give direction and shape of the fitted curve.
row,Structure (SMILES),Potency
1,COc1cccc2c1C(=O)c1c(O)c3c(c(O)c1C2=O)C[C@](O)(C(C)=O)C[C@H]3O[C@@H]1C[C@@H](N)[C@@H](O)[C@@H](C)O1,active: 84.9 µM
2,O=S(=O)(Nc1nc2n(n1)C(c1ccccc1)C=C(c1ccc(Cl)cc1)N2)c1ccccc1 (stereo not given),"inconclusive [inhibitor, single point]"
3,O=C1c2ccccc2-c2onc3ccc(N4CCCC4)c1c23,"inconclusive [inhibitor, single point]"
4,CC(=O)Nc1ccc(S(=O)(=O)Nc2nc3n(n2)C(c2ccccc2)C=C(c2ccc(Cl)cc2)N3)cc1 (stereo not given),"inconclusive [inhibitor, single point]"
5,Cn1c(=O)c(Nc2ccc(O)cc2)c2c3c(cccc31)C(=O)c1ccccc1-2,"inconclusive [inhibitor, partial curve]"
